Data published in article PMC5951851.
Results are given in words; binding and its absence hold for the method and conditions named. In cells and extracts the contact can be indirect. Some binding calls cover weakened binding; strength is not graded here. Sequences can lack the tags named with a protein.

Chains of the proteins cited; added tags and fusions are not shown.
UniProt Q8H1F2: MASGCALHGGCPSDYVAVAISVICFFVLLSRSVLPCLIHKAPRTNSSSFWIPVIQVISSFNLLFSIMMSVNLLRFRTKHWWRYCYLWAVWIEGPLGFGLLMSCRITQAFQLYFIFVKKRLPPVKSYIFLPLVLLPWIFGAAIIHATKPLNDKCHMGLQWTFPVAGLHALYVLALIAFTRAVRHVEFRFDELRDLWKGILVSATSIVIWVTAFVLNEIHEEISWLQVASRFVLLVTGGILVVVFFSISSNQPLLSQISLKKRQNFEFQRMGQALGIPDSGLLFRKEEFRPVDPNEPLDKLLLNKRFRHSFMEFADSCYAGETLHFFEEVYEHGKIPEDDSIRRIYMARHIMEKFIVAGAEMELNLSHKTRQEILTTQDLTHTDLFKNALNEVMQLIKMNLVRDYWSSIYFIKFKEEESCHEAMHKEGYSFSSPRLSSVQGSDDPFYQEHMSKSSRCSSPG

T1: GPA1 (luciferase complementation fusion) (Arabidopsis thaliana), P18064
T1 chain: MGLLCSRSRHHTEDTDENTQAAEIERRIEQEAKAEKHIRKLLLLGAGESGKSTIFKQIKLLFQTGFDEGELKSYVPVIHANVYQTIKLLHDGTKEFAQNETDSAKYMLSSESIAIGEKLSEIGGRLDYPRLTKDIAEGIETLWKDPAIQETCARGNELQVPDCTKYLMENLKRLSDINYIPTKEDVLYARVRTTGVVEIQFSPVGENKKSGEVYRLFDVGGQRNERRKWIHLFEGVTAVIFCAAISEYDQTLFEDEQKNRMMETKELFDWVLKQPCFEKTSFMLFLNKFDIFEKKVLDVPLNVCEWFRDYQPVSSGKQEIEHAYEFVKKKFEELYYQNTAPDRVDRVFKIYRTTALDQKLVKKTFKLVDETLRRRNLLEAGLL


Assays:
[1] = target: T1, GPA1 (luciferase complementation …); assay: split reporter; luciferase complementation; Nluc and Cluc constructs co-expressed in N. benthamiana leaves by Agrobacterium; leaf disks after 2 days with 1 mM luciferin; with or without flg22, elf18 or chitin; conditions: remark: other sources report otherwise
[2] = target: RGS1 (luciferase complementation fusion) (Arabidopsis thaliana) (UniProt Q8H1F2); assay: as above

binding [1] | binding [2] | Binder
binds |  | AGB1 (luciferase complementation fusion), P49177 1-377 (protein) MSVSELKERHAVATETVNNLRDQLRQRRLQLLDTDVARYSAAQGRTRVSFGATDLVCCRTLQGHTGKVYSLDWTPERNRIVSASQDGRLIVWNALTSQKTHAIKLPCAWVMTCAFSPNGQSVACGGLDSVCSIFSLSSTADKDGTVPVSRMLTGHRGYVSCCQYVPNEDAHLITSSGDQTCILWDVTTGLKTSVFGGEFQSGHTADVLSVSISGSNPNWFISGSCDSTARLWDTRAASRAVRTFHGHEGDVNTVKFFPDGYRFGTGSDDGTCRLYDIRTGHQLQVYQPHGDGENGPVTSIAFSVSGRLLFAGYASNNTCYVWDTLLGEVVLDLGLQQDSHRNRISCLGLSADGSALCTGSWDSNLKIWAFGGHRRVI
 | binds | LYK5 (luciferase complementation fusion) (receptor, UniProt O22808 27-664) QQPYVNNHQLACEVRVYDNITNGFTCNGPPSCRSYLTFWSQPPYNTADSIAKLLNVSAAEIQSINNLPTATTRIPTRELVVIPANCSCSSSSGGFYQHNATYNLSGNRGDETYFSVANDTYQALSTCQAMMSQNRYGERQLTPGLNLLVPLRCACPTAKQTTAGFKYLLTYLVAMGDSISGIAEMFNSTSAAITEGNELTSDNIFFFTPVLVPLTTEPTKIVISPSPPPPPVVATPPQTPVDPPGSSSSHKWIYIGIGIGAGLLLLLSILALCFYKRRSKKKSLPSSLPEENKLFDSSTKQSIPTTTTTQWSIDLSNSSEAFGLKSAIESLTLYRFNDLQSATSNFSDENRIKGSVYRATINGDDAAVKVIKGDVSSSEINLLKKLNHSNIIRLSGFCIREGTSYLVFEYSENGSISDWLHSSGKKSLTWKQRVEIARDVAEALDYLHNYITPPHIHKNLESTNILLDSNFRAKIANFGVARILDEGDLDLQLTRHVEGTQGYLAPEYVENGVITSKLDVFAFGVAVLELLSGREAVTIHKKKEGEEEVEMLCKVINSVLGGENVREKLKEFMDPSLGNEYPLELAYTMAQLAKSCVATDLNSRPSVTQVLTTLSMIVSSSIDWEPSDDLLRSGSLGN
 | no binding | CERK1 (luciferase complementation fusion) (receptor, UniProt A8R7E6 24-617) KCRTSCPLALASYYLENGTTLSVINQNLNSSIAPYDQINFDPILRYNSNIKDKDRIQMGSRVLVPFPCECQPGDFLGHNFSYSVRQEDTYERVAISNYANLTTMESLQARNPFPATNIPLSATLNVLVNCSCGDESVSKDFGLFVTYPLRPEDSLSSIARSSGVSADILQRYNPGVNFNSGNGIVYVPGRDPNGAFPPFKSSKQDGVGAGVIAGIVIGVIVALLLILFIVYYAYRKNKSKGDSFSSSIPLSTKADHASSTSLQSGGLGGAGVSPGIAAISVDKSVEFSLEELAKATDNFNLSFKIGQGGFGAVYYAELRGEKAAIKKMDMEASKQFLAELKVLTRVHHVNLVRLIGYCVEGSLFLVYEYVENGNLGQHLHGSGREPLPWTKRVQIALDSARGLEYIHEHTVPVYVHRDIKSANILIDQKFRAKVADFGLTKLTEVGGSATRGAMGTFGYMAPETVYGEVSAKVDVYAFGVVLYELISAKGAVVKMTEAVGEFRGLVGVFEESFKETDKEEALRKIIDPRLGDSYPFDSVYKMAELGKACTQENAQLRPSMRYIVVALSTLFSSTGNWDVGNFQNEDLVSLMSGR
